Source: the supplement of paper PMC4967469

Legend:
Experiment in all cases: Viability of human cancer cell lines after 72 h of drug (GDSC screen)
[1] = compound: O=c1cc(-c2cccc3c2Sc2ccccc2S3)oc(N2CCOCC2)c1 [KU-55933]; conditions: top dose 10 µM
Protocol: (§1)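 Human cancer cell lines in 384-well plates, medium with 10% serum, drug for 72 h over a 256-fold dose range (nine 2-fold or five 4-fold steps up to the top dose). Adherent lines were fixed and stained with the nucleic acid dye Syto60, suspension lines read with resazurin; signal relative to control wells, capped at 0 and 100%. One two-parameter sigmoid per drug and line, fitted in a mixed model over all curves with the slope shared within a line.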

[2] = compound: Cc1cnc(-c2cnc(NCCNc3ccc(C#N)cn3)nc2-c2ccc(Cl)cc2Cl)[nH]1 [CHIR-99021]
Protocol: as §1

[3] = compound: Cc1ccc(F)c(NC(=O)Nc2ccc(-c3cccc4[nH]nc(N)c34)cc2)c1 [ABT-869]; conditions: top dose 1.024 µM; top dose inferred
Protocol: as §1

[4] = compound: COc1cc2ncnc(-n3nc(-c4ccccn4)nc3N)c2cc1OC [CP466722]; conditions: top dose 16 µM; top dose inferred
Protocol: as §1

[5] = compound: CCn1c(-c2nonc2N)nc2cnc(Oc3cccc(NC(=O)c4ccc(OCCN5CCOCC5)cc4)c3)cc21 [GSK269962A]; conditions: top dose 5 µM; screen: GDSC drug entry 1192; top dose inferred
Protocol: as §1

[6] = compound: COc1cc(N2CCC(O)CC2)ccc1Nc1cc(Nc2ccccc2S(=O)(=O)C(C)C)c2cc[nH]c2n1 [MPS-1-IN-1]; conditions: top dose 20 µM; top dose inferred
Protocol: as §1

[7] = compound: COc1cc(O)c2c(c1)/C=C/C[C@H](O)[C@H](O)C(=O)/C=C\C[C@H](C)OC2=O [(5Z)-7-Oxozeaenol]; conditions: top dose 10 µM; top dose inferred
Protocol: as §1

[8] = compound: COc1nc(C)cnc1NS(=O)(=O)c1cccnc1-c1ccc(-c2nnco2)cc1 [Zibotentan]; conditions: top dose 20 µM; top dose inferred
Protocol: as §1

[9] = compound: C/C=C(/C)C(=O)O[C@H]1C(C)=C2[C@H]([C@@H]1OC(=O)CCCCCCC)[C@@](C)(OC(C)=O)C[C@H](OC(=O)CCC)[C@@]1(O)[C@H]2OC(=O)[C@@]1(C)O [Thapsigargin]; conditions: top dose 0.512 µM; top dose inferred
Protocol: as §1

[10] = compound: Nc1ccn([C@@H]2O[C@H](CO)[C@@H](O)[C@@H]2O)c(=O)n1 [Cytarabine]; conditions: top dose 2 µM
Protocol: as §1

[11] = compound: C[C@]1(c2nc3c(C(N)=O)cccc3[nH]2)CCCN1 [ABT-888]; conditions: top dose 5 µM; top dose inferred
Protocol: as §1

[12] = compound: C=CC(=O)Nc1cc(-n2c(=O)ccc3cnc4ccc(-c5cn[nH]c5)cc4c32)ccc1C [QL-X-138]; conditions: top dose 10.24 µM; top dose inferred
Protocol: as §1

[13] = top dose 2.56 µM, screen: GDSC drug entry 154
[14] = top dose 10 µM, screen: GDSC drug entry 1241, top dose inferred

Row | Cell Line | AUC [1] | IC50 [1] [µM] | AUC [2, 13] | IC50 [2, 13] [µM] | AUC [2, 14] | IC50 [2, 14] [µM] | AUC [3] | IC50 [3] [nM] | AUC [4] | IC50 [4] [µM] | AUC [5] | IC50 [5] [µM] | AUC [6] | IC50 [6] [µM] | AUC [7] | IC50 [7] [nM] | AUC [8] | IC50 [8] [µM] | AUC [9] | IC50 [9] [nM] | AUC [10] | IC50 [10] [nM] | AUC [11] | IC50 [11] [µM] | AUC [12] | IC50 [12] [µM]
1 | 451Lu (melanoma, adherent) | 0.955 | > 10 | 0.984 | > 2.56 | 0.972 | > 10 | 0.985 | > 1020 | 0.887 | > 16 | 0.988 | > 5 | 0.967 | > 20 | 0.104 | < 39.1 | 0.987 | > 20 | 0.179 | 3.66 | 0.75 | 631 | 0.987 | > 5 | 0.794 | 4.49
2 | 639-V (bladder, adherent) | 0.865 | 6.75 | 0.99 | > 2.56 | 0.979 | > 10 | 0.985 | > 1020 | 0.941 | > 16 | 0.92 | > 5 | 0.988 | > 20 | 0.71 | 2200 | 0.992 | > 20 | 0.083 | < 2 | 0.815 | 901 | 0.956 | > 5 | 0.881 | 7.96
3 | 647-V (bladder, adherent) | 0.922 | > 10 | 0.987 | > 2.56 | 0.983 | > 10 | 0.985 | > 1020 | 0.803 | 7.97 | 0.893 | > 5 | 0.947 | > 20 | 0.663 | 1780 | 0.987 | > 20 | 0.322 | 10.1 | 0.806 | 1020 | 0.984 | > 5 | 0.654 | 1.71
4 | 8305C (thyroid, adherent) | 0.887 | > 10 | 0.929 | > 2.56 | 0.97 | > 10 | 0.974 | > 1020 | 0.909 | > 16 | 0.942 | > 5 | 0.935 | > 20 | 0.575 | 1070 | 0.978 | > 20 | 0.261 | 5.28 | 0.875 | > 2000 | 0.982 | > 5 | 0.885 | > 10.2
5 | 8505C (thyroid, adherent) | 0.944 | > 10 | 0.938 | > 2.56 | 0.861 | 9.3 | 0.985 | > 1020 | 0.876 | > 16 | 0.976 | > 5 | 0.927 | > 20 | 0.635 | 1510 | 0.976 | > 20 | 0.057 | < 2 | 0.821 | 1250 | 0.974 | > 5 | 0.667 | 1.92
6 | ASH-3 (thyroid, adherent) | 0.957 | > 10 | 0.872 | 2.43 | 0.919 | > 10 | 0.983 | > 1020 | 0.911 | > 16 | 0.78 | 2.06 | 0.988 | > 20 | 0.549 | 851 | 0.988 | > 20 | 0.069 | < 2 | 0.652 | 330 | 0.988 | > 5 | 0.86 | 8.57
7 | BHT-101 (thyroid, adherent) | 0.903 | > 10 | 0.983 | > 2.56 | 0.742 | 3.16 | 0.976 | > 1020 | 0.782 | 6.89 | 0.814 | 2.83 | 0.864 | 18.5 | 0.121 | < 39.1 | 0.985 | > 20 | 0.381 | 14.9 | 0.359 | 50.3 | 0.973 | > 5 | 0.909 | > 10.2
8 | BICR10 (head and neck, adherent) | 0.931 | > 10 | 0.877 | > 2.56 | 0.928 | > 10 | 0.973 | > 1020 | 0.913 | > 16 | 0.899 | > 5 | 0.985 | > 20 | 0.808 | 6180 | 0.985 | > 20 | 0.894 | > 512 | 0.461 | 96 | 0.978 | > 5 | 0.904 | > 10.2
9 | BT-483 (breast, adherent) | 0.947 | > 10 | 0.977 | > 2.56 | 0.941 | > 10 | 0.967 | > 1020 | 0.752 | 10.5 | 0.975 | > 5 | 0.971 | > 20 | 0.747 | 6240 | 0.971 | > 20 | 0.954 | > 512 | 0.975 | > 2000 | 0.978 | > 5 | 0.61 | 1.68
10 | C3A (liver, adherent) | 0.979 | > 10 | 0.983 | > 2.56 | 0.933 | > 10 | 0.97 | > 1020 | 0.987 | > 16 | 0.86 | 4.47 | 0.988 | > 20 | 0.681 | 2050 | 0.988 | > 20 | 0.394 | 16.1 | 0.889 | > 2000 | 0.988 | > 5 | 0.985 | > 10.2

IC50 is the fitted dose that halves viability relative to control wells, and lower means more sensitive; a limit (>, <) means that the fit lies beyond the doses tested. The AUC spans the tested range (256-fold, ending at the top dose) of the same fit; values near 1 show little effect. For some assays here: An inferred top dose was calculated from the reported fits. For some assays here: Where an entry number is given, a second screen of the drug exists; the two often differ.
